Sequences and labels used below:
B1: LINE1-mini (parent)
chain: GGCAGAGCUCAACACAGCGUGGCAAAGUGGCUGUGGCUAGACUGCC

The source gives no read counts; variants with many changes may rest on few reads.

The variants in this data set derive from B1. The experiment in a line: self-cleavage, relative activity (ratio to wild type); higher = more cleavage; in vitro, sequencing; the parent is a self-cleaving ribozyme.
With G1A G2A C23G, the self-cleavage worked out at 1.35. In the case of G1A C8A G40A, the self-cleavage turned out to be 0.48. Consider G1A C15U G21C A25G G29U, for which the self-cleavage amounted to 0.56. In the case of G1A C13U U34G C42U, the self-cleavage worked out at 0.02.

G1A G2U C15A C18U A24U G33U: the self-cleavage came out at 0.07. In the case of G1A G17C U28A G30C C31U A41U C42U, the self-cleavage came out at 0.02.

For G1A G7C G33C U43C C45A, the self-cleavage stood at 0.15. G1A C8G G17A U38G G40A U43G: the self-cleavage was 0.15. As for G1A G5A A12C C13A A16G A24C G33C C37A, the self-cleavage worked out at 0.01. On to G1A G5C A6C G7C G27U G44A, for which the self-cleavage turned out to be 0.23. Take G1A G7U G36C: the self-cleavage is 0.23. For G1A C3A G17A, the self-cleavage was 1.6. Consider G1A G17U G27C G30A A41G, for which the self-cleavage amounted to 0.1.

In the case of G1A G19U G27U A41C C42G C46A, the self-cleavage was 0.04. With G1A G22C G27A G33U, the self-cleavage came out at 0.07. To G1A G17U G21U G36C belongs 0.09; to G1A C15G U20C U34G G36C, 0.07; to G1A G17U G21C G29A G33U, 0.04. Regarding G1A G27C G33C, the self-cleavage is 0.05.

With G1A C8G G19A C23U, the self-cleavage was 0.09. Consider G1A G19U A24U A26U U28A U34G, for which the self-cleavage is 0.12. Turning to G1A G5A U32A A41C, the self-cleavage came to 0.1. For G1A G2U C8G G22A G29U G35A, the self-cleavage was found to be 0.23. Next, G1A G17U C18A G21U: 0.14; G1A C13A C23A G30A G36A: 0.22. Regarding G1A C10U A25C A26C, the self-cleavage was determined as 0.68. Consider G1A G29A G35C A39C, for which the self-cleavage came out at 0.08. For the variant G1A G7A A11C U20C, the self-cleavage turned out to be 0.07. For G1A G17C C37G C42G U43A, the self-cleavage came to 0.03. To G1A C13A C31A G33U belongs 0.02; to G1A G5A A39U C46A, 0.31.

Turning to G1A C8U A12G C15A A26U G35C C42G, the self-cleavage is 0.73. For G1A G19A C31G C37A, the self-cleavage is 0.13. In the case of G1A C3A C10U C18A G21A G33A, the self-cleavage worked out at 0.71. Next, G1A C10U A14G C15G A16U A24C: 0.06; G1A C13G U20C A24C G35C: 1.76. In the case of G1A C3A G7A G40A U43A, the self-cleavage is 1.34. To G1A G7U A11G belongs 0.07; to G1A G19A G40U, 0.03; to G1A C13G U34C, 0.07.

Turning to G1A C3A U20G G40U, the self-cleavage is 1.12. Turning to G1A G5C C8G C23U G29A, the self-cleavage was 0.26. For G1A C8U C31A C42A, the self-cleavage was 0.67. Next, G1A C8A G44C: 0.27; G1A C3G C10A U20G G29A: 0.09; G1A G27U U28A: 0.4.

Turning to G1A G17U G19U C45U, the self-cleavage was 0.07. G1A G7C C45G: the self-cleavage was 0.1.

For the variant G1A C13G G40U C45A, the self-cleavage was 0.1. On to G1A C15G G19A C31A U34C U38C, for which the self-cleavage was found to be 0. As for G1A C3A G35A C37U, the self-cleavage stood at 1.1. As for G1A C23A G33U U34C, the self-cleavage was 0.06. Take G1A C18U C42A: the self-cleavage stood at 0.24. As for G1A C3A C13A U28C, the self-cleavage is 0.9. For G1A G2C G7U G33A C37G, the self-cleavage stood at 0.38. For the variant G1A G2U C8A A26C C37U, the self-cleavage was determined as 0.02. In the case of G1A G2C A6U C8U G19A A25C G30C U43A, the self-cleavage is 0.12. With G1A C37A C42A, the self-cleavage was determined as 0.05. Take G1A C10A G30A: the self-cleavage turned out to be 0. Turning to G1A C8U G22U G36C C37G A39U, the self-cleavage was found to be 0.54. As for G1A G17U G30U, the self-cleavage turned out to be 0.08.

For G1A C3U C10A U38G G44A, the self-cleavage was 0.15.

Consider G1A G2A A6G G19U, for which the self-cleavage was found to be 0.44.

With G1A G21A C42A, the self-cleavage came to 0.27. Next, G1A C10A G17U U20G A25U A41G C42A C46G: 0.05; G1A G22U C23U A26U: 1.09; G1A C8U A11C G21C U34G C45A: 0.01.

For the variant G1A G17C A24C U38A, the self-cleavage amounted to 0.04.

As to G1A C8G G30U, the self-cleavage is 0.16. As to G1A G5U A26C C31U G33U, the self-cleavage came to 0.04. Next, G1A G5C C23A A25G A41C: 0.02.

Regarding G1A C3G C18A C37A, the self-cleavage was 0.47.

On to G1A G27A G36U A41G, for which the self-cleavage worked out at 0.09. As for G1A C8A U28C A41C, the self-cleavage came to 0.39. Next, G1A C10A C13U G33C: 0.02.

For G1A C3A U34A G36U U43C, the self-cleavage was 0.65. Regarding G1A G17A G29C C37A C42G, the self-cleavage was determined as 0.03.

As to G1A G17U C23A G44U, the self-cleavage was determined as 0.04. On to G1A C8U G17C, for which the self-cleavage came to 0.81. For G1A C3U U38C, the self-cleavage was determined as 0.48.

Take G1A G5A U20C G30A G35C: the self-cleavage came out at 0.05. Consider G1A G19A A25C C37G G40C G44U, for which the self-cleavage amounted to 0.03.

As to G1A C3A A12G C15A G21C C37U, the self-cleavage is 0.45.

Regarding G1A G2C A26U U28G G36A, the self-cleavage is 0.18. In the case of G1A C18U C37G, the self-cleavage was determined as 0.06. To G1A G5A G35A belongs 0.18. G1A C10A G27U: the self-cleavage was 0.04.

Consider G1A C23U A24G, for which the self-cleavage stood at 0.61. On to G1A C13G G44A, for which the self-cleavage was determined as 0.08.

For the variant G1A G19U G21C A41U, the self-cleavage worked out at 0.38. To G1A C13U U34G C46A belongs 0.03; to G1A G2C A6U A16G G17U, 0.04. To G1A G7C U9A A24U G30A belongs 0.43. To G1A G2U A12U C18A A26U belongs 0.03; to G1A G5C G7U U34A, 0.59. On to G1A G5C C23A U34C, for which the self-cleavage came out at 0.07. Regarding G1A C8G G36C, the self-cleavage worked out at 0.24. G1A G5A C10U: the self-cleavage worked out at 0.49.

With G1A C8A C10U, the self-cleavage stood at 0.08. Turning to G1A C23G G30C U34C G35U, the self-cleavage was 0.02. As for G1A G7U A11G U28G, the self-cleavage stood at 0.04.

For G1A G5U C23A, the self-cleavage amounted to 0.08. To G1A G2C A12G G30C G36A G44C belongs 0.05.

Regarding G1A G5C A6U G7A C18A G33U C42U, the self-cleavage was 2.07. For G1A C8G G19U G44A, the self-cleavage came to 0.09. To G1A G22A A41U C46U belongs 2.7. Regarding G1A C8U A12U A14U C37A, the self-cleavage was 0.07. Next, G1A C10A G22U G33U: 0.05. For G1A G7C G36U G40U, the self-cleavage was 0.32. To G1A C18G G21C belongs 0.43; to G1A C13U G21A A41U, 0.1; to G1A C37U C46U, 0.08. As for G1A G2C C23U, the self-cleavage was determined as 0.21. Take G1A C3U G29U: the self-cleavage amounted to 0.49. As for G1A G17U C37A U38A, the self-cleavage is 0.02.

For the variant G1A G17C G33A, the self-cleavage is 0.5. As to G1A C3A C10A, the self-cleavage came to 0.17. Consider G1A C8G A11C G35U, for which the self-cleavage was 0.02. With G1A G2A A6C G30C G33C, the self-cleavage was 0.17. For the variant G1A G19A G21A A26C U34C, the self-cleavage worked out at 0.5. For G1A G5A A11C G19A G30U A41U, the self-cleavage worked out at 0.05. As to G1A G17A G27C, the self-cleavage turned out to be 0.04. On to G1A C8G A14G, for which the self-cleavage amounted to 0.16.

Consider G1A G2C A41U, for which the self-cleavage came to 0.03. To G1A G19U U34C belongs 0.09; to G1A C8U C31A G33A, 0.38; to G1A G17A A26G, 0.2. Next, G1A C13A G22U G44U: 0.02; G1A C8A A16C C18G: 0.14.

G1A C15U C18A: the self-cleavage was found to be 0.24. For G1A C37G A39G U43C, the self-cleavage is 0.02. As to G1A C3U G5U G29A, the self-cleavage was 0.14. For G1A C15U G21A C37U C42A, the self-cleavage turned out to be 0.06. As for G1A G2C G5U C42U, the self-cleavage worked out at 0.02.

For the variant G1A C13U G30A G33A, the self-cleavage came to 0.1. To G1A G7U U43G belongs 0.11. On to G1A C31G C37G, for which the self-cleavage was 0.05. Consider G1A C8G C13U G21C G44U, for which the self-cleavage is 0.04. Regarding G1A G19U G27A, the self-cleavage amounted to 0.08.

With G1A C15G C42G, the self-cleavage worked out at 0.05. Consider G1A C23G U34G, for which the self-cleavage is 0.13.

Regarding G1A C15U U43A, the self-cleavage was 0.05.

As to G1A G7U C13U G29C, the self-cleavage was 1.78.

For the variant G1A C15U G27C G33U G40U, the self-cleavage came to 0.02. As to G1A G2C G21U C23A A26G U32G, the self-cleavage worked out at 0.05.

Turning to G1A C10A C42U U43A, the self-cleavage came to 0.01. In the case of G1A C3A G17A A26U, the self-cleavage amounted to 1.48. Next, G1A C8A C42A U43C: 0.25; G1A G17C U38C G40A: 0.07; G1A G17A A26C G27U C31G U32C: 0.08. As to G1A C8A U28G, the self-cleavage was 0.46. Turning to G1A G7C U9A, the self-cleavage stood at 0.07. Turning to G1A G5U G7A A11C G27C G40U, the self-cleavage worked out at 0.02. With G1A C13A A16C U20G, the self-cleavage came to 0.04. As to G1A G2U C3A G33A, the self-cleavage is 2.33. Regarding G1A C3A A25U G40A, the self-cleavage worked out at 1.24.

Turning to G1A C8G U32C G33C G44A, the self-cleavage is 0.04. To G1A C18G U32C A39G belongs 0.04; to G1A G7U C8A A16G G19C U32C, 0.06. In the case of G1A G29A U38G A39C, the self-cleavage came to 0.08. With G1A G5U G19A U34G, the self-cleavage came to 0.05. In the case of G1A C8G A25U U34C C46U, the self-cleavage came to 0.06. Consider G1A G7U C10G, for which the self-cleavage was 0.04. As for G1A G5U A6G U9G U38G A41U, the self-cleavage came to 0.03. Next, G1A G7A C15G A16U C31A: 0.35; G1A C13G C15U G35C A39G C46G: 0.16; G1A C3U A11U G29C G36A: 0.08.

For the origin of these results see the RNAGym collection of RNA variant scans (doi:10.7554/elife.90254).
